{
  "source": "the supplement of paper PMC11417369",
  "note": "± gives the standard deviation of the averaged measurements. This is one part of the list.",
  "data": [
    {"test_system": "PfAP2-LT AP2 domain (GST-tagged)", "assay": "gcPBM binding intensity (ln(normalized median fluorescence intensity)); higher = stronger DNA binding", "summary_of_the_method": "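Alexa488 anti-GST antibody, scanned at 488 nm, detected GST-tagged P. falciparum DNA-binding domains that had been expressed in E. coli and incubated for 1 h on an Agilent 4 × 180k array. The array carried primer-extended double-stranded 36-bp intergenic genomic probes and negative controls. Binding intensity is the highest Masliner-normalised natural-log median intensity across replicate spots of either orientation of each probe.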", "values": [
      {"sequence": "ATATATATGTGTAAAAGTACATATATTTTGAAATAT [XGTACX_site4024]", "gcPBM binding intensity (ln)": "9.08 ± 0.42"},
      {"sequence": "TTTTAATAAAAGCCCATGCACACCTTAGAAAGTTTT [CACACA_site346]", "gcPBM binding intensity (ln)": "8.56 ± 0.41"},
      {"sequence": "TAAATATATATTATATGTACTTATATATATATATAT [XGTACX_site4448]", "gcPBM binding intensity (ln)": "8.79 ± 0.28"},
      {"sequence": "TTTTTCATTTTTAAAATAATTATAATATTATACATA [XGTACX_negctrl_site43]", "gcPBM binding intensity (ln)": "8.35 ± 0.44"},
      {"sequence": "TAAATCAGCCATAACACACATACATATATACATAAA [CACACA_site396]", "gcPBM binding intensity (ln)": "9.14 ± 0.37"},
      {"sequence": "AGCAAATAAATAAATAAATAAATAAATATATATATA [TGCATGCA_negctrl_site40]", "gcPBM binding intensity (ln)": "8.79 ± 0.46"},
      {"sequence": "ATAATTAACAAATACACACACACACGCCCACAAAAA [CACACA_site6389]", "gcPBM binding intensity (ln)": "10 ± 0.11"},
      {"sequence": "CAATCAAATGGACACACACACACCTAAACATAAAAG [CACACA_site5524]", "gcPBM binding intensity (ln)": "10 ± 0.3"},
      {"sequence": "ATTAAAAAATTACAAGCATGCTTGTTAAAATTTTTT [TGCATGCA_site941]", "gcPBM binding intensity (ln)": "8.39 ± 0.44"},
      {"sequence": "CTTTTTTTTTTAAATTGTACAAATGTGATGTAATAG [XGTACX_site3219]", "gcPBM binding intensity (ln)": "8.36 ± 0.4"},
      {"sequence": "TATATATATGTATATGTGCACAGTTTTCTTATTAAA [GTGCAC_site9990]", "gcPBM binding intensity (ln)": "8.73 ± 0.4"},
      {"sequence": "TGGGCACCCATATACACACACAAATACAATGATAAA [CACACA_site4762]", "gcPBM binding intensity (ln)": "9.32 ± 0.52"},
      {"sequence": "AAAAAAAAAAAAATGTGTACATACATATATTTATAT [XGTACX_site3076]", "gcPBM binding intensity (ln)": "8.75 ± 0.45"},
      {"sequence": "GGAAAAGGTATCCGTTCACACATAAATGGATACCAT [CACACA_site5072]", "gcPBM binding intensity (ln)": "8.8 ± 0.42"},
      {"sequence": "ATTACATATTGATAAGTGCAAGTGTGAGAAATGTTA", "gcPBM binding intensity (ln)": "8.9 ± 0.38"},
      {"sequence": "TCTATATAGATTTGCACACATAAAAATGCTTATATA [CACACA_site2389]", "gcPBM binding intensity (ln)": "9.07 ± 0.26"},
      {"sequence": "TTTTATTTATTTTATTGTACATATATAAAACTATGA [XGTACX_site3476]", "gcPBM binding intensity (ln)": "8.53 ± 0.49"},
      {"sequence": "AATATATTATATATATGTACATATGTGTATACATTT [XGTACX_site937]", "gcPBM binding intensity (ln)": "8.91 ± 0.43"},
      {"sequence": "CCCACATAAAAAAATAAACACACATATGTATATATA [CACACA_site9040]", "gcPBM binding intensity (ln)": "9.17 ± 0.4"},
      {"sequence": "TAATCAATTCAATATTGTACGATATTTACCTTTAAA [XGTACX_site4678]", "gcPBM binding intensity (ln)": "8.64 ± 0.53"},
      {"sequence": "AAATGGGCTTATTTATGTACTTAAATATATCTACCC [XGTACX_site3823]", "gcPBM binding intensity (ln)": "8.85 ± 0.61"},
      {"sequence": "TACATATATATATACACACATACATATATATACGCA [CACACA_site792]", "gcPBM binding intensity (ln)": "9.11 ± 0.28"},
      {"sequence": "AACCTCGTGTAATATGCATGTTCCCTTCAAAGTTTT [TGCATGCA_site459]", "gcPBM binding intensity (ln)": "8.82 ± 0.34"},
      {"sequence": "ATTATACATTTTAGATGTACATATTTTAAATTTAAT [XGTACX_site5174]", "gcPBM binding intensity (ln)": "8.62 ± 0.36"},
      {"sequence": "AGAAATTAATCGAAGTGTACATATAAACATACATAT [XGTACX_site5518]", "gcPBM binding intensity (ln)": "9 ± 0.41"},
      {"sequence": "ATATTTTGTATAATCACACACACTATTCTTAAATAG [CACACA_site7270]", "gcPBM binding intensity (ln)": "9.23 ± 0.37"},
      {"sequence": "AACAAACAAACAAATATACACACTTTTGTATAAAGT [CACACA_site3509]", "gcPBM binding intensity (ln)": "9.17 ± 0.41"},
      {"sequence": "TACATTGTATACATATGTACACATATATATATATAT [XGTACX_site6174]", "gcPBM binding intensity (ln)": "9.59 ± 0.25"},
      {"sequence": "TATTTATGTTATAATTGTACAATAAACAAATTTTTT [XGTACX_site5306]", "gcPBM binding intensity (ln)": "8.45 ± 0.31"},
      {"sequence": "AAAAAAATCTATATTACACACATATATACCTATATA [CACACA_site7464]", "gcPBM binding intensity (ln)": "8.9 ± 0.39"},
      {"sequence": "TATATATATATAATGTGTACATACTAAATAGAGGAC [XGTACX_site4153]", "gcPBM binding intensity (ln)": "9.2 ± 0.49"},
      {"sequence": "GAAATGTATAAATCCATACACACATAAATTTTAATA [CACACA_site2364]", "gcPBM binding intensity (ln)": "9.01 ± 0.45"},
      {"sequence": "TAAATATAAAAATGCACACACACAAAAAAAAAAAAA [CACACA_site895]", "gcPBM binding intensity (ln)": "9.63 ± 0.49"},
      {"sequence": "ATAGGTGAATACTAATATAAATTCAAGAGGGAAAAG [CACACA_negctrl_site720]", "gcPBM binding intensity (ln)": "8.9 ± 0.55"},
      {"sequence": "TTTACATTAAATCACGCACACAAAAAAAAAAAAAAA [CACACA_site2418]", "gcPBM binding intensity (ln)": "8.94 ± 0.37"},
      {"sequence": "TATTTATTTGTGGGGTGTACGAAATTTTTTTTTTTT [XGTACX_site5091]", "gcPBM binding intensity (ln)": "9.31 ± 0.099"},
      {"sequence": "TTTGAATTTTTATATACACACATTATTATATTATAT [CACACA_site1593]", "gcPBM binding intensity (ln)": "8.96 ± 0.42"},
      {"sequence": "ATCTATGGAGCTTATACACACTTTTATATTTTAACA [CACACA_site5994]", "gcPBM binding intensity (ln)": "8.93 ± 0.46"},
      {"sequence": "GGAATAAATAATATTATACACACGTATATTATTATA [CACACA_site2435]", "gcPBM binding intensity (ln)": "8.81 ± 0.4"},
      {"sequence": "AAGCTTTCATAAAGATGTACTTTTTAAAAATAATCT [XGTACX_site5725]", "gcPBM binding intensity (ln)": "8.28 ± 0.3"},
      {"sequence": "TGTGCATAATTTTGTGCACACCACGCTAATAATTTT [CACACA_site2915]", "gcPBM binding intensity (ln)": "8.94 ± 0.35"},
      {"sequence": "ATAAATATATGATAAAGTACATATTTATATAATAAA [XGTACX_site7263]", "gcPBM binding intensity (ln)": "8.71 ± 0.36"},
      {"sequence": "TGATATTATATATATACACACATGTATGTATATATA [CACACA_site1364]", "gcPBM binding intensity (ln)": "8.85 ± 0.34"},
      {"sequence": "ATATTTATTTATAATTGTACTAATAATATATTTTAA [XGTACX_site587]", "gcPBM binding intensity (ln)": "8.42 ± 0.55"},
      {"sequence": "ATGTATCTATATATATGTACACATATTTTAATTAAA [XGTACX_site3673]", "gcPBM binding intensity (ln)": "8.69 ± 0.39"},
      {"sequence": "AAAATAAAAAATTAATGTACTTAGAATTGTCACTAA [XGTACX_site1346]", "gcPBM binding intensity (ln)": "8.46 ± 0.52"},
      {"sequence": "TTTTGTAAATATATATGTACATATATATATATATAT [XGTACX_site5803]", "gcPBM binding intensity (ln)": "9.27 ± 0.2"},
      {"sequence": "ACCTATTTATAATAGTGTACGTACAAATTTGTTTAC [XGTACX_site8176]", "gcPBM binding intensity (ln)": "9.09 ± 0.39"},
      {"sequence": "TTTTTCATGTTTATTAGTACATATATTAAGAATGGA [XGTACX_site3493]", "gcPBM binding intensity (ln)": "8.34 ± 0.42"},
      {"sequence": "AATTTGTTGAAACACACACACACATACATATATATA [CACACA_site2287]", "gcPBM binding intensity (ln)": "9.91 ± 0.4"},
      {"sequence": "TAAAATAATAAACAGAAGAAATCATTCATATAAAAA [XGTACX_negctrl_site502]", "gcPBM binding intensity (ln)": "8.54 ± 0.5"},
      {"sequence": "AAAGAAAATAACAAAATTTTGAAAACATCACATTCG [CACACA_negctrl_site89]", "gcPBM binding intensity (ln)": "8.84 ± 0.46"},
      {"sequence": "AAATTAAAGGCATAAAAGAAAATATTTAATAAAAAA [CACACA_negctrl_site1689]", "gcPBM binding intensity (ln)": "8.4 ± 0.6"},
      {"sequence": "ACCAGTTCTTAATACAAATATGTACATATATATATA [GTGCAC_negctrl_site56]", "gcPBM binding intensity (ln)": "9.03 ± 0.24"},
      {"sequence": "TTTTTTTTAATTGTGATACGTATATTATTTAATGAT [CACACA_negctrl_site38]", "gcPBM binding intensity (ln)": "8.69 ± 0.4"},
      {"sequence": "ATATATAATAAACAGGTGCATTGTTTTATTTTGTAT", "gcPBM binding intensity (ln)": "8.87 ± 0.45"},
      {"sequence": "AGCAGGATTAAAAAAAGTACAAGAATTAATATTTAA [XGTACX_site3413]", "gcPBM binding intensity (ln)": "8.54 ± 0.7"}
    ]}
  ]
}
